For 3 substances, binding results are on record in publication PMC8121548.

Amino acid sequences for entries named in this document (tags omitted).
UniProt Q07652: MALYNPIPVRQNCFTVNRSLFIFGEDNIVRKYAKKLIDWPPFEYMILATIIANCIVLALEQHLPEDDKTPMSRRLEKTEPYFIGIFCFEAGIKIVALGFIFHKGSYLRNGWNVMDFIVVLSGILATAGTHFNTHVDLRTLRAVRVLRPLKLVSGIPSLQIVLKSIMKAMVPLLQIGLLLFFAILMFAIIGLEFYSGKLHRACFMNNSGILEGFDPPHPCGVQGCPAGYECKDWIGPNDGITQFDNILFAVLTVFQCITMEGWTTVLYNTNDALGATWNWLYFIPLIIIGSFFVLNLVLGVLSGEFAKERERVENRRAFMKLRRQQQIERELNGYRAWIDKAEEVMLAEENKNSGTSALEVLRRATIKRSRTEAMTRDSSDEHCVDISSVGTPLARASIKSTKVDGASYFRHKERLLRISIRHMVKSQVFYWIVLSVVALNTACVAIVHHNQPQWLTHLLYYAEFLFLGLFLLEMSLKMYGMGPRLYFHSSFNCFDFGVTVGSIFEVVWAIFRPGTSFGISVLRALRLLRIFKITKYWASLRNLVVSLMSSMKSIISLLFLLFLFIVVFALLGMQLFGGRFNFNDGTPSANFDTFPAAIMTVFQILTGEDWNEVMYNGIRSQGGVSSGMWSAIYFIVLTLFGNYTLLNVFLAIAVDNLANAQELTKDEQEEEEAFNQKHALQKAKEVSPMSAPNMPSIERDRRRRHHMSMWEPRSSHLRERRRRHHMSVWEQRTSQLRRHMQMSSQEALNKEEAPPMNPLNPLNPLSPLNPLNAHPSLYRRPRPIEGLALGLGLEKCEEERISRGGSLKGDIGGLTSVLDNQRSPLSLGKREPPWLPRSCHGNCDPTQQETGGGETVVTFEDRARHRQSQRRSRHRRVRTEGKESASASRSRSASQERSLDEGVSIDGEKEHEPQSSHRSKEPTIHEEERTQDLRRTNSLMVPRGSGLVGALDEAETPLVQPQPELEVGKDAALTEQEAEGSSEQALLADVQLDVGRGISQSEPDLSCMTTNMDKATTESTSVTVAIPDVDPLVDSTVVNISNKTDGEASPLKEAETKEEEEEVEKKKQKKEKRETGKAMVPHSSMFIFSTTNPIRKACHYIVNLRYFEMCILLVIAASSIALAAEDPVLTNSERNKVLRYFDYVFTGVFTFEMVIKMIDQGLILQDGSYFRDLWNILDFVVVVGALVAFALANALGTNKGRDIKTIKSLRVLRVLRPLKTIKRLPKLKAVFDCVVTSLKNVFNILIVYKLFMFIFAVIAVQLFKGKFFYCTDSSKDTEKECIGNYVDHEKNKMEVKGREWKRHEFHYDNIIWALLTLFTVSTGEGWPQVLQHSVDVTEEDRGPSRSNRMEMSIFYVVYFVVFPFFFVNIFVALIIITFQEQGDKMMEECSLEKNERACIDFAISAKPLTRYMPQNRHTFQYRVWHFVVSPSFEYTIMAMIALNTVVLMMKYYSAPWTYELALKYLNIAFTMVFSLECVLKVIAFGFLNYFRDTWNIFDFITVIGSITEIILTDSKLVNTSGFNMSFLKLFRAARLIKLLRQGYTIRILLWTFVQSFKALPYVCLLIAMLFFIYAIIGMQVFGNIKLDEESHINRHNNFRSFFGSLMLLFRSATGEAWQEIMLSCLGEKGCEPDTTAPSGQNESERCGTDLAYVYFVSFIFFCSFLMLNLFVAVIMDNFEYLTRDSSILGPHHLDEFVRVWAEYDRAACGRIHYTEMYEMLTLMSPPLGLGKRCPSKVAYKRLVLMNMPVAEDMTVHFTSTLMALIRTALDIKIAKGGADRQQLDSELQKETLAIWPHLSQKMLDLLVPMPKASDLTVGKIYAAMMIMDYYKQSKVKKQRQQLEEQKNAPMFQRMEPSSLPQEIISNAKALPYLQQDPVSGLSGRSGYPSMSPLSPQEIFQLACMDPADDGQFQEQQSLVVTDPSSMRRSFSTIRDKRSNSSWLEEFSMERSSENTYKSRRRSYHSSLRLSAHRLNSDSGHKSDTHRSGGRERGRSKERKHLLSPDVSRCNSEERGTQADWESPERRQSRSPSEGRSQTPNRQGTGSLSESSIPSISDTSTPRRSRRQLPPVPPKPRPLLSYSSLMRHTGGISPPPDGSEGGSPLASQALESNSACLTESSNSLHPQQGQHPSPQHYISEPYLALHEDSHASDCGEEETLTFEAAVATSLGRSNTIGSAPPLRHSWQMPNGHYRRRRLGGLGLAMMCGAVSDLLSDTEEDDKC
UniProt Q6WVG3: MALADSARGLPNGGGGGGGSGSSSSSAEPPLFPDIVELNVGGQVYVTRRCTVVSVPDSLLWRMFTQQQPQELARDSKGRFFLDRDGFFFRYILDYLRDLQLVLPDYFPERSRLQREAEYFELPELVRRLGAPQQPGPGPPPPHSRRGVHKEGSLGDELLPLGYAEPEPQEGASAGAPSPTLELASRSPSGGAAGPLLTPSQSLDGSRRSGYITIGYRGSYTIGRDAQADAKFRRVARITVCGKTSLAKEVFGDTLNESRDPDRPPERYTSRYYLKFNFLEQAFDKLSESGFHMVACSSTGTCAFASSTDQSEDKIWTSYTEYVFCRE

For test [1], the target named is C-terminally Flag-tagged Cav2.3 (UniProt Q07652). Nature of the test: co-IP; total cell lysates of transfected HEK293T cells in NETN buffer (100 mM NaCl, 1 mM EDTA, 0.5% Nonidet P-40, 20 mM Tris-HCl, pH 7.4); immunoprecipitation with anti-Cav2.3 (ACC-006), 16 hr at 4°C, protein-A/G agarose; blot with anti-Flag.
The target in test [2] is rat Cav2.3 (pore forming α-subunit) (rat) (UniProt Q07652). The test is described as follows: co-IP; total membrane and plasma membrane extracts of HEK293T cells transfected with rat Cav2.3, β3, α2δ1 and Flag-KCTD, solubilized in 0.5% Nonidet P-40; immunoprecipitation with anti-Cav2.3 (ACC-006), 16 hr at 4°C; blot with anti-KCTD8 or anti-Flag.

No constants are given. Whether binding was seen depends on the method and setting. Binding seen in cells or lysates may run through a third protein. Some binding calls cover weakened binding; strength is not graded here.

Take “N-terminally Flag-tagged KCTD12b (from UniProt Q8C7J6 1-292)”: the binding entry in test [1] and in test [2] was “binds” in each case.

Consider “N-terminally Flag-tagged KCTD12 (from UniProt Q6WVG3 1-327)”, for which the binding result in test [1] was “no binding”. As to “N-terminally Flag-tagged KCTD8 (from UniProt Q50H33-1 1-476)”, the binding result in test [1] and in test [2] was “binds” each time.
